Whole data set: some 4,100 sequences, median “relative CpG methylation activity (normalised to average over all NNNCGNNN flanks)” near 0.94, cut for the highest 2% near 1.9. This is one part of the list.
target: DNMT3B catalytic domain (mouse) (UniProt O88509); test: relative CpG methylation activity (normalised to average over all NNNCGNNN flanks) (relative (1 = mean)); higher = more methylation of the central CpG; settings: system: in vitro, murine catalytic domain; CpG state: hemimethylated substrate pool; residues: 558-859
Chain of UniProt O88509 (O88509 558-859): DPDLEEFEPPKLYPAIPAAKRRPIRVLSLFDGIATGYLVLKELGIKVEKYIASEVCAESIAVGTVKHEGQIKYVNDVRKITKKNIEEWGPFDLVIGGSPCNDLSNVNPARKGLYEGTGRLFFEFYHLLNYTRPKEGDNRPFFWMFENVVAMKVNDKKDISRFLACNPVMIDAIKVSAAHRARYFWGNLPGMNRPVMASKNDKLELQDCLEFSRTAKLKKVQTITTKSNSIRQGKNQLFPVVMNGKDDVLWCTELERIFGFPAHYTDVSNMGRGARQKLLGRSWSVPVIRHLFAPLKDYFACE
Method in brief: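 Each experiment was done in two independent repeats, using pooled dsDNA substrates with a central CpG flanked by 10 random nucleotides, methylated for 60 min at 37 °C by the murine DNMT3A or DNMT3B catalytic domain with 0.8 mM S-adenosyl-L-methionine in HEPES pH 7.5 buffer. After bisulfite conversion and PCR, the DNA was read by Illumina sequencing. Methylation was averaged per context, defined by three bases on each side of the CpG. Relative methylation activity is each context's average methylation over the mean of all contexts.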

| Sequence | relative CpG methylation activity |
| --- | --- |
| ATCCGATG | 1.39 |
| CTGCGACT | 1.54 |
| TATCGAGA | 1.69 |
| CGCCGGGC | 1.18 |
| TTTCGCTG | 0.895 |
| ATTCGCCA | 0.989 |
| CTTCGAGC | 1.79 |
| CTCCGAGT | 1.99 |
| ATCCGCCT | 1 |
| TGTCGTTG | 0.219 |
| ACCCGCGC | 0.569 |
| AATCGCCT | 0.933 |
| ACCCGAAG | 1.11 |
| TGGCGAAG | 0.444 |
| GGGCGCCG | 0.595 |
| GTACGTCC | 1.5 |
| TCACGTGT | 0.575 |
| TTACGGCG | 2.25 |
| AATCGCAG | 0.452 |
| CTCCGCCG | 1.14 |
| ACGCGATA | 1.19 |
| TGCCGCGG | 0.2 |
| GGGCGATA | 0.723 |
| CGGCGTTT | 0.454 |
| GTGCGAAT | 1.22 |

| Sequence | relative CpG methylation activity |
| --- | --- |
| GGCCGCTG | 0.227 |
| CACCGTTA | 0.391 |
| AGGCGCTA | 0.214 |
| CGTCGGGT | 0.965 |
| ATACGGTG | 1.75 |
| GTTCGGGC | 1.53 |
| GTACGTGA | 0.765 |
| TGACGTCT | 0.919 |
| CTTCGCAT | 0.762 |
| GTGCGCTA | 0.474 |
| AAACGACT | 1.49 |
| TGCCGACA | 0.803 |
| ACCCGGAA | 0.948 |
| AGCCGCAA | 0.129 |
| TCACGAGA | 1.96 |
| TGGCGCCA | 0.525 |
| AGTCGGCC | 1.69 |
| AAACGAGT | 1.79 |
| ATCCGATT | 1.56 |
| CTCCGCAC | 1.34 |
| CTGCGTGG | 0.781 |
| CTTCGACT | 1.54 |
| ACGCGCCC | 0.935 |
| AAGCGGTC | 0.856 |
| CGGCGAGT | 0.779 |

| Sequence | relative CpG methylation activity |
| --- | --- |
| TGGCGTAT | 0.719 |
| ATACGCGG | 1.2 |
| CTTCGCTC | 0.965 |
| TCGCGCTG | 0.501 |
| TTCCGGCG | 2.04 |
| TGACGCCG | 0.831 |
| ATGCGAAT | 1.12 |
| TCACGCAC | 1.09 |
| ACACGAGT | 1.58 |
| CTGCGGGT | 1.5 |
| TCCCGCTG | 0.561 |
| GCCCGCTG | 0.457 |
| GATCGATC | 1.48 |
| ACCCGCGG | 0.568 |
| GTCCGCCG | 0.894 |
| GCACGAGC | 1.79 |
| GCGCGCTG | 0.425 |
| GTTCGTAC | 1.18 |
| GCCCGATC | 1.58 |
| CGCCGAGC | 1.3 |
| ATGCGAAG | 0.766 |
| AATCGATG | 1.29 |
| ATCCGAGG | 1.21 |
| TTGCGTAC | 1.26 |
| GTGCGTGT | 0.463 |

| Sequence | relative CpG methylation activity |
| --- | --- |
| GTGCGTTT | 0.63 |
| GTTCGGTC | 1.15 |
| ACTCGACG | 1 |
| CCTCGGAC | 1.14 |
| TGCCGCAT | 0.247 |
| TCTCGTGT | 0.266 |
| ACACGTTA | 0.789 |
| CTGCGACA | 1.21 |
| CATCGATG | 1.48 |
| TTGCGAGG | 1.4 |
| CCACGGGC | 1.72 |
| GCTCGGCA | 1.47 |
| AATCGTTT | 0.303 |
| ACTCGCAG | 0.345 |
| AGGCGATG | 0.563 |
| CCACGGTT | 1.45 |
| CTCCGCTA | 1.15 |
| GCCCGGGT | 1.24 |
| GCCCGATG | 1.41 |
| GTACGAAT | 1.48 |
| TGTCGGGT | 1.02 |
| ATCCGGAC | 1.12 |
| GATCGAAA | 1.32 |
| TTCCGCAC | 1.24 |
| GAGCGATG | 0.633 |

| Sequence | relative CpG methylation activity |
| --- | --- |
| AAGCGATA | 1.12 |
| GCACGTGG | 0.497 |
| CTGCGCCC | 1.24 |
| CCACGAAA | 1.39 |
| ACGCGTTC | 0.658 |
| ATTCGTTT | 0.469 |
| ACTCGGCC | 1.62 |
| TGGCGAAT | 0.687 |
| AAGCGCCA | 0.765 |
| TTACGTGG | 1.01 |
| CTTCGATT | 1.71 |
| ACGCGCGT | 0.522 |
| TAGCGCCT | 0.72 |
| ATACGCAC | 1.36 |
| CCACGACC | 1.35 |
| GTGCGAGT | 1.29 |
| CGACGTAC | 0.815 |
| GGTCGAGC | 1.36 |
| GAACGTGC | 1.03 |
| AACCGGTA | 0.82 |
| CAGCGTCT | 0.578 |
| CCCCGATT | 1.69 |
| TTGCGGAC | 1.19 |
| GCTCGTTC | 0.626 |
| AACCGACT | 0.962 |

| Sequence | relative CpG methylation activity |
| --- | --- |
| CGCCGCGA | 0.141 |
| GCTCGCTC | 0.825 |
| GGGCGGAA | 0.326 |
| CATCGGCC | 1.86 |
| TCTCGGAG | 0.601 |
| ACGCGTCG | 0.617 |
| TCTCGAGG | 1.49 |
| TATCGATC | 1.78 |
| AAACGACA | 1.45 |
| GGGCGTGC | 0.439 |
| CGACGCGC | 0.833 |
| TGACGTGA | 0.339 |
| AACCGGGG | 0.797 |
| TGACGGAC | 0.994 |
| TGTCGGTA | 1.16 |
| GGCCGTCG | 0.284 |
| CCTCGATA | 1.61 |
| CTTCGAAT | 1.49 |
| AACCGTTT | 0.234 |
| GCTCGGTA | 1.08 |
| TACCGCTT | 0.676 |
| GGCCGACG | 0.769 |
| AAGCGCGT | 0.426 |
| AATCGGTT | 1.25 |
| TAGCGACC | 0.779 |

| Sequence | relative CpG methylation activity |
| --- | --- |
| ATTCGGAT | 0.679 |
| CATCGTGA | 0.436 |
| CGGCGACC | 0.673 |
| TCACGACC | 1.17 |
| GGCCGCGT | 0.0969 |
| TGGCGCAT | 0.311 |
| CGACGGGT | 1.28 |
| ACGCGCTC | 0.863 |
| AATCGCCC | 0.893 |
| ATGCGGCG | 1.34 |
| CCCCGATG | 1.35 |
| GCACGGCT | 1.52 |
| CCGCGACA | 0.815 |
| AGACGCTA | 0.784 |
| ACCCGCTC | 0.838 |
| CACCGCTG | 0.459 |
| TGGCGGTT | 0.685 |
| CCGCGGTT | 0.773 |
| ACACGTTC | 1.13 |
| TCACGGCC | 1.74 |
| ACTCGCCC | 0.893 |
| CGTCGCCA | 0.723 |
